Test results taken from US20150335738A1 (priority 2012, published 2015).

Legend:
SIgA in saliva = conditions: 20 mg beta carotene per day; compared to the placebo group; cited from earlier work
IgA = conditions: maternal mice, supplementation during pregnancy and lactation; cited from earlier work
human SIgA in saliva [1] = format: in vivo
human SIgA in saliva [2] = system: human SIgA in saliva
serum IgA = conditions: CVID patients with initial low Vitamin A levels; cited from earlier work

Molecule: CC1=C(/C=C/C(C)=C/C=C/C(C)=C/C=C/C=C(C)/C=C/C=C(C)/C=C/C2=C(C)CCCC2(C)C)C(C)(C)CCC1 [Beta-carotene, beta-carotene]
- saliva secretion of SIgA (SIgA in saliva): did not increase
- IgA transfer from maternal milk to neonates (IgA): useful for enhancing IgA transfer
- SIgA saliva, 3 days before exercise (human SIgA in saliva [1]; 3 days before exercise): 128 microgram IgA per ml of saliva
- Recovery in saliva (human SIgA in saliva [1]; Reference (before exercise) = 100%): 77%
- SIgA saliva, day 1 after exercise (human SIgA in saliva [1]; day 1 after exercise): 67 microgram IgA per ml of saliva
- SIgA saliva, day 6 after exercise (human SIgA in saliva [1]; day 6 after exercise): 98 microgram IgA per ml of saliva

Molecule: CCCCCCCCCCCCCCCC(=O)OC/C=C(C)/C=C/C=C(C)/C=C/C1=C(C)CCCC1(C)C [retinylpalmitate]
- before treatment saliva SIgA (human SIgA in saliva [2]; before treatment, baseline of the individual): 113 mg/L
- after treatment saliva SIgA (human SIgA in saliva [2]; one day after end of treatment, oral, two times per day for 3 weeks, 5 ml (50 mg)): 96 mg/L
- SIgA % recovery (human SIgA in saliva [2]; saliva, reference (before treatment) = 100%): 85%

Molecule: Vitamin A
- serum IgA levels (serum IgA): improved serum IgA levels
